About 4,200 (1.3%) of roughly 330,000 compounds were called active. Inconclusive results, whose numbers are uncertain, are shown with a selection of clear calls. Calls come from the whole dose curve; as a rule, active = well fitted activation curve with a large enough effect; inconclusive = small, poorly fitted or top-dose-only effect; inactive = no such curve, though single readings can be large or run the other way. Potencies of inconclusive entries are doubtful fits and often do not repeat.
Assay: qHTS screen for small molecules that induce genotoxicity in human embryonic kidney (HEK293T) cells expressing luciferase-tagged ELG1; note: nearly all actives have a fitted effect of over 60% in size; for activity change, positive = activation: % of control where 0% means no effect
Conditions: HEK293T ELG1-luciferase reporter, luminescence, 16 h; series mostly up to 46 µM; activity change, positive = activation: at the top concentration
How it was run: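 ELG1-luciferase HEK293T cells, 2,000/well; compound pinned in; 16 hr, 37 °C, 5% CO2; ONE-Glo, 30 min RT; luminescence on CCD imager.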
Potency is the fitted concentration of half-maximal effect; tags give direction and shape of the fitted curve.

Compound | activity change, positive = activation | Potency
Cc1cc(OCC(=O)Nc2ccncc2)ccc1Cl | inactive: -1.52% | –
Cc1cc(C)c2c(NC(=S)NC(=O)c3ccccc3)nn(C)c2n1 | inactive: -0.577% | –
CCc1ccc(-c2nc(CS(=O)CC(=O)NCCCN3CCOCC3)c(C)o2)cc1 (stereo not drawn) | inactive: 6.08% | –
O=C(NCC(=O)N1CCCCC1)c1ccc2ccccc2c1 | – | inconclusive: 16.4 µM [activator, partial curve, poor fit]
CCOc1ccc(-c2nc(C#N)c(N3CCCCCC3)o2)cc1 | – | inconclusive: 25.9 µM [activator, single point]
COc1ccc(-n2cc(CN(C)CCO)c(-c3cccc(F)c3)n2)cc1 | – | inconclusive: 4.11 µM [activator, full curve]
Oc1[nH]c2ccccc2c1N=Nc1ccc(F)cc1 | – | inconclusive: 20.6 µM [activator, single point]
CCN(Cc1ccc(OC)c(COC)c1)CC1CCCN(CCc2cccc(F)c2)C1 (stereo not drawn) | inactive: -8% | –
N#CCSc1ccc(S(=O)(=O)N2CCOCC2)cn1 | inactive: -0.554% | –
COc1ccc(C(=O)Cn2c(C(=O)/C=C/c3ccccc3)nc3ccccc32)cc1 | – | inconclusive: 32.6 µM [activator, partial curve, poor fit]
O=C(Cc1cccs1)Nc1ccc(-c2nnc(-c3ccco3)o2)cc1 | – | inconclusive: 10.3 µM [activator, partial curve, poor fit]
COc1ccc(CNC(=O)c2ccc(Cn3nc(C)c([N+](=O)[O-])c3C)o2)cc1 | – | inconclusive: 23.1 µM [activator, partial curve, poor fit]
COc1ccc(C(=O)/C=C/Nc2ccccn2)c(OC)c1 | – | active: 1.83 µM
O=C(Nc1ccc2c(c1)nc1n2CCN(Cc2ccccc2)C1)NC1CCCCC1 | – | inconclusive: 29.1 µM [activator, partial curve, poor fit]
C=CCN1C(=O)C(CC(=O)Nc2ccc(OCCC)cc2)N(CCCN2CCN(Cc3ccccc3)CC2)C1=S (stereo not drawn) | inactive: 14.3% | –
O=c1[nH]c(SCc2cccc(Cl)c2)nc2[nH]ncc12 | – | inconclusive: 23.1 µM [activator, single point]
CCN(CC)CCN(C(=O)c1ccc2ncsc2c1)c1nc2cc3c(cc2s1)OCO3 | – | active: 2.91 µM
CCOc1ccc(NC(=O)CN(C)C(=O)c2ccc(-c3ccc(C(C)=O)cc3)o2)cc1OCC | – | inconclusive: 5.8 µM [activator, single point]
CSc1ccc(/C=N/NC(=O)c2cccc(O)c2)cc1 | – | inconclusive: 6.51 µM [activator, full curve, poor fit]
Cc1ccc(-c2nc(N/N=C/c3cccnc3)c3ccccc3n2)cc1 | – | inconclusive: 1.78 µM [activator, partial curve, poor fit]
Cc1ccc(/C=N/NC(=O)c2ccccn2)s1 | – | inconclusive: 3.66 µM [activator, full curve]
COc1ccccc1N1C(N)=NC(N)=NC12CCCCC2 | inactive: 0.0634% | –
CCC(C)(C)NC(=O)C(c1ccc(F)cc1)N(Cc1ccccc1)C(=O)c1cnccn1 (stereo not drawn) | inactive: -1.61% | –
CC(=O)Nc1ccc(NC2=C(Cl)C(=O)c3ccccc3C2=O)cc1 | – | inconclusive: 2 µM [activator, partial curve, poor fit]
CCOc1ccc(NC(=O)c2cc3ccccc3cc2OC)cc1 | – | inconclusive: 20.6 µM [activator, single point]

Compound | activity change, positive = activation | Potency
Cc1c(C(=O)N(C)C)sc2nc(-c3ccccn3)[nH]c(=O)c12 | – | inconclusive: 32.6 µM [activator, partial curve, poor fit]
CCN(Cc1ccccc1)C(=O)CN1C(=O)COc2ccc(S(=O)(=O)NC3CCCC3)cc21 | inactive: -0.505% [at 9.26 µM] | –
O=C(CSc1nnc(-c2ccncc2)o1)Nc1ccccc1Cl | – | inconclusive: 10 µM [activator, partial curve, poor fit]
O=C(Cc1nc2ccccc2[nH]1)c1ccc([N+](=O)[O-])cc1 | – | inconclusive: 18.3 µM [activator, partial curve, poor fit]
O=C1/C(=C/c2cccnc2)SC(=S)N1CC1CCCO1 (stereo not drawn) | inactive: -4.28% | –
COc1ccc(OCCSc2ncccn2)cc1 | – | active: 3.66 µM
C(=N\Nc1ccccn1)/c1c[nH]c2ccccc12 | – | inconclusive: 16.4 µM [activator, single point]
COc1ccccc1C(=O)NC1CCCc2ccccc21 (stereo not drawn) | inactive: -8.31% | –
Cc1ccc(C)c(NC(=O)c2ccc3ccccc3n2)c1 | – | inconclusive: 1.26 µM [activator, full curve, poor fit]
CCc1ccc(NC(=O)c2ccccc2NC(=O)C2CCCO2)cc1 (stereo not drawn) | – | active: 11.6 µM
O=C(O)Cn1nnc(-c2ccc(OCc3ccccc3Cl)cc2)n1 | inactive: 4.66% | –
COC(=O)c1cccc(NC(=O)NC(=O)c2ccccc2Cl)c1 | – | inconclusive: 2.91 µM [activator, partial curve, poor fit]
CC(C)Cn1c(N)c(/C=N/NC(=O)c2ccc(Cl)cc2)c(=O)n(C)c1=O | inactive: 8.2% | –
Cc1ccc2nc(NC(=O)c3cccc(-c4cc5ccccc5oc4=O)c3)sc2c1 | – | inconclusive: 20.6 µM [activator, partial curve, poor fit]
Cc1ccc(-n2nnnc2SCn2nnc3ccccc3c2=O)cc1 | – | active: 16.4 µM
CCOC(=O)c1c(C)[nH]c(C(=O)CSc2ccc(Cl)cc2)c1C | – | inconclusive: 23.1 µM [activator, partial curve, poor fit]
COc1cc(N=CC2=C(O)c3ccccc3C2=O)cc(OC)c1 | – | inconclusive: 6.51 µM [activator, partial curve, poor fit]
Cn1c(SCC(=O)Nc2ccc(N3CCOCC3)cc2)nnc1-c1ccccc1 | inactive: 7.64% | –
CCCc1cc(C(=O)Nc2cccnc2)no1 | – | inconclusive: 25.9 µM [activator, partial curve, poor fit]
COc1ccccc1C(=O)Nc1nc(-c2cccs2)c(NC(C)=O)s1 | – | active: 9.2 µM
CC(=O)NC(Cc1ccc(C)cc1)C(=O)NC1CCN(C(=O)NCc2ccccc2)CC1 (stereo not drawn) | inactive: 2.5% | –
CCc1ccc(NC(=O)c2cnn(-c3ccccc3)c2C)cc1 | – | inconclusive: 2.91 µM [activator, partial curve]
O=C(COc1ccc2ccccc2c1)Nc1nccs1 | – | inconclusive: 2.59 µM [activator, partial curve]
CCC(C(=O)OCC(=O)NC(=O)c1ccccc1OC)c1ccccc1 (stereo not drawn) | inactive: -0.566% | –
CCCCCCC(=O)c1c(C)[nH]c(C(=O)OCC)c1C | – | active: 14.1 µM

Compound | activity change, positive = activation | Potency
Cc1cc(C)c2sc(N(CCCN(C)C)C(=O)c3ccc(S(=O)(=O)N4CCc5ccccc5C4)cc3)nc2c1 | – | inconclusive: 25.9 µM [activator, partial curve, poor fit]
COc1cc(-c2c(-c3cc(OC)c(OC)c(OC)c3)noc2C)ccc1F | – | inconclusive: 1.3 µM [activator, full curve]
C[C@H](Cc1ccccc1)Nc1ncnc2c1ncn2[C@@H]1O[C@H](CO)[C@@H](O)[C@H]1O | – | active: 13 µM
O=C(c1ccco1)N1CCn2c1nc1ccccc12 | – | inconclusive: 14.6 µM [activator, partial curve]
Cc1nn(C(C)C(=O)NCc2cccs2)c(C)c1[N+](=O)[O-] (stereo not drawn) | inactive: 2.31% | –
O=C(Nc1cccc(O)c1)c1noc2c1CCc1ccccc1-2 | – | active: 1.16 µM
NC(=O)[C@@H]1CCCN1Cc1nc(-c2ccc(C(F)(F)F)cc2)no1 | inactive: 7.44% | –
O=C(OCc1ccccc1F)c1ccc2c(c1)OCCO2 | – | inconclusive: 18.4 µM [activator, single point]
Cc1ccc(NC(=O)C2CCN(S(=O)(=O)c3cccc(C(F)(F)F)c3)CC2)nc1 | – | inconclusive: 20.6 µM [activator, partial curve, poor fit]
Cc1cc(C(=O)COC(=O)C2=COCCO2)c(C)n1-c1ccc2c(c1)OCO2 | – | inconclusive: 8.2 µM [activator, partial curve]
COc1ccc(-c2cc(C(=O)OCC(=O)c3cccc([N+](=O)[O-])c3)c3cc(C)ccc3n2)cc1 | inactive: -0.545% | –
COc1ccc2nc(N3CCC(C)CC3)c(C#N)cc2c1 | – | inconclusive: 16.4 µM [activator, partial curve, poor fit]
Cc1ccc(NC(=O)c2ccc(N3CCOCC3)c([N+](=O)[O-])c2)cc1S(=O)(=O)N1CCOCC1 | inactive: -10.2% | –
c1ccc(-c2nnc(CSc3nncs3)o2)cc1 | – | active: 23.1 µM
COC(=O)c1cccc(S(=O)(=O)N(Cc2ccco2)Cc2cc3cc(OC)c(OC)cc3[nH]c2=O)c1 | inactive: -4.88% | –
COc1ccc(S(=O)(=O)Nc2ccc3c(c2)n(C)c(=O)n3C)cc1OC | – | inconclusive: 18.3 µM [activator, single point]
CCOc1ccc(C(NC(=O)c2ccco2)c2ccc(OC)c(OC)c2)cc1 (stereo not drawn) | inactive: 10.8% | –
COc1cccc(-c2nc(-c3ccc4c(c3)NC(=O)CO4)cs2)c1 | inactive: 11% | –
O=C1c2cccc3cccc(c23)C(=O)N1CCN1CCN(CC(O)COCc2ccc(Cl)cc2)CC1 (stereo not drawn) | inactive: -4.97% | –
O=C(O)c1cnn(-c2nc(-c3ccc(Cl)c(Cl)c3)cs2)c1C(F)(F)F | – | inconclusive: 20.6 µM [activator, single point]
CCN(CC)c1ccc(/C=N/NC(=O)Cc2nnc(NC(=O)Nc3ccccc3)s2)cc1 | – | inconclusive: 16.4 µM [activator, partial curve, poor fit]
CC(=C/c1ccccc1)/C=N/n1c(-c2ccncc2)n[nH]c1=S | inactive: -19.7% | –
O=C(NCCSc1ccccc1)c1ccccc1 | – | inconclusive: 4.11 µM [activator, partial curve]

Reference: PubChem BioAssay AID504466 (National Center for Advancing Translational Sciences (NCATS), 2011)
